Experiment [1] has as its target T1, monkey HER2-His protein (monkey).
T1 construct: Bought protein; also called monkey HER2 protein
Description: ELISA, coated monkey HER2-His. A general note: ELISA stands for enzyme-linked immunosorbent assay.

The target in experiment [2] is T2, murine HER2-His protein (murine, UniProt P70424 23-653).
T2 construct: Bought protein; also called murine HER2 protein; not shown: His tag
Description: ELISA, coated murine HER2-His.

Experiment [3] concerns the target T3, monkey HER2 on HEK293T-monkey-HER2 cells (monkey).
T3 construct: whole, on cells
Description: FACS on HEK293T-monkey-HER2 cells.

The target in experiment [4] is T4, recombinant human HER2-His protein (human, UniProt P04626 partial chain, limits assumed).
T4 construct: also called human HER2 protein; not shown: His tag
Nature of the experiment: SPR, antibody captured on Protein A chip, human HER2-His analyte, 1:1 model.

Experiment [5] concerns the target T1, monkey HER2-His protein. Nature of the experiment: SPR, antibody captured on Protein A chip, monkey HER2-His analyte, 1:1 model. In general terms: In SPR one partner is held on a chip, and binding of the other changes the refractive index at the surface.
The target in experiment [6] is T2, murine HER2-His protein. Description: SPR, antibody captured on Protein A chip, murine HER2-His analyte, 1:1 model.

B1: NB147-66 VHH-hFc (Fc fusion)
chain: QLQLVESGGGLVHTGGSLRLSCAASGSTLDYHAIGWFRQAPGKEREGVSCITSSGGRTNYADSVKGRFTVSRDDAKNTVYLQMNSLKPEDTAVYYCAAVIYDSAWICNLLAGYEYRYWGQGTQVTVSS[human IgG1 Fc with changes not written out]
notes: the junction is not described
For orientation: EC50 means the concentration needed to bring the measured effect to its halfway point. By Kd is commonly meant the concentration at which binding is half-saturated. What is called koff is the first-order rate constant of dissociation. Broadly, the kon is the rate constant with which the complex forms. Regarding B1, in the experiment with monkey HER2-His protein [1], the “OD450 nm at 0.0001 nM antibody” value came to 0.05 OD450 nm, the “OD450 nm at 0.001 nM antibody” value amounted to 0.07 OD450 nm, the “OD450 nm at 0.01 nM antibody” value is 0.16 OD450 nm and the “OD450 nm at 0.1 nM antibody” value is 1.06 OD450 nm. Further, in the experiment with monkey HER2-His protein [1], the “OD450 nm at 1 nM antibody” value was determined as 2.53 OD450 nm, the “OD450 nm at 10 nM antibody” value worked out at 2.74 OD450 nm and the “OD450 nm at 100 nM antibody” value worked out at 3.13 OD450 nm. In addition, in the experiment with murine HER2-His protein [2], the “OD450 nm at 0.0001 nM antibody” value is 0.05 OD450 nm, the “OD450 nm at 0.001 nM antibody” value was 0.06 OD450 nm, the “OD450 nm at 0.01 nM antibody” value turned out to be 0.18 OD450 nm and the “OD450 nm at 0.1 nM antibody” value is 1.08 OD450 nm. For the same molecule, in the experiment with murine HER2-His protein [2], the “OD450 nm at 1 nM antibody” value stood at 2.52 OD450 nm, the “OD450 nm at 10 nM antibody” value is 2.8 OD450 nm and the “OD450 nm at 100 nM antibody” value turned out to be 3.13 OD450 nm. Besides, in experiment [3], the response was half-maximal at 4.02 nM (EC50) and the “Max MFI” value turned out to be 19200 MFI. Besides, in experiment [4], the Kd was 93 nM, the koff worked out at 0.00204 s⁻¹ and the kon was determined as 21900 M⁻¹ s⁻¹. Besides, in the experiment with monkey HER2-His protein [5], the dissociation constant Kd came out at 59.3 nM, the dissociation rate constant (koff) stood at 0.00439 s⁻¹ and the association rate constant (kon) amounted to 74000 M⁻¹ s⁻¹. In the experiment with murine HER2-His protein [6], the Kd amounted to 467 nM, the off-rate constant (koff) turned out to be 0.00744 s⁻¹ and the kon came out at 15900 M⁻¹ s⁻¹.

B2: NB147-32 VHH-hFc (Fc fusion)
chain: QLQLVESGGGLVQSGGSLRLSCAASGFSLDYHAIGWFRQAPGKEREGVSCISSSGGRTNYADSVKGRFTISRDNAKNTVYLQMNSLKPEDAAVYSCAAVIYNSAWICNLLTGYEYEYWGQGTQVTVSS[human IgG1 Fc with changes not written out]
notes: the junction is not described
With B2, in the experiment with monkey HER2-His protein [1], the “OD450 nm at 0.0001 nM antibody” value stood at 0.05 OD450 nm, the “OD450 nm at 0.001 nM antibody” value came out at 0.06 OD450 nm, the “OD450 nm at 0.01 nM antibody” value worked out at 0.19 OD450 nm and the “OD450 nm at 0.1 nM antibody” value stood at 1.19 OD450 nm. For the same molecule, in the experiment with monkey HER2-His protein [1], the “OD450 nm at 1 nM antibody” value worked out at 2.7 OD450 nm, the “OD450 nm at 10 nM antibody” value is 2.83 OD450 nm and the “OD450 nm at 100 nM antibody” value turned out to be 2.83 OD450 nm. In addition, in the experiment with murine HER2-His protein [2], the “OD450 nm at 0.0001 nM antibody” value was determined as 0.05 OD450 nm, the “OD450 nm at 0.001 nM antibody” value was 0.06 OD450 nm, the “OD450 nm at 0.01 nM antibody” value is 0.2 OD450 nm and the “OD450 nm at 0.1 nM antibody” value is 1.2 OD450 nm. Besides, in the experiment with murine HER2-His protein [2], the “OD450 nm at 1 nM antibody” value was found to be 2.75 OD450 nm, the “OD450 nm at 10 nM antibody” value was 2.93 OD450 nm and the “OD450 nm at 100 nM antibody” value amounted to 2.92 OD450 nm. Moreover, in experiment [3], the concentration giving a half-maximal response (EC50) turned out to be 2.8 nM and the “Max MFI” value was 18300 MFI. In the experiment with monkey HER2-His protein [5], this molecule gave an equilibrium dissociation constant (Kd) of 68.3 nM, a koff of 0.00279 s⁻¹ and a kon of 40900 M⁻¹ s⁻¹. In the experiment with murine HER2-His protein [6], this molecule showed a Kd of 374 nM, a koff of 0.00677 s⁻¹ and a kon of 18100 M⁻¹ s⁻¹.

B3: NB147-61 VHH-hFc (Fc fusion)
chain: EVQLVESGGGMVQPGGSLRLSCAASGFTLDYYAIGWFRQAPGKEREGVSCISSSGGRTNYADSVKGRFTISRDDARNTVYLQMNTLKPEDTAVYYCAAVILDNSWHCGYSYDMDYWGKGTLVTVSS[human IgG1 Fc with changes not written out]
notes: the junction is not described
Regarding B3, in the experiment with monkey HER2-His protein [1], the “OD450 nm at 0.0001 nM antibody” value worked out at 0.05 OD450 nm, the “OD450 nm at 0.001 nM antibody” value stood at 0.06 OD450 nm, the “OD450 nm at 0.01 nM antibody” value stood at 0.16 OD450 nm and the “OD450 nm at 0.1 nM antibody” value was found to be 0.97 OD450 nm. Also, in the experiment with monkey HER2-His protein [1], the “OD450 nm at 1 nM antibody” value was found to be 2.49 OD450 nm, the “OD450 nm at 10 nM antibody” value amounted to 2.77 OD450 nm and the “OD450 nm at 100 nM antibody” value amounted to 3.12 OD450 nm. Moreover, in the experiment with murine HER2-His protein [2], the “OD450 nm at 0.0001 nM antibody” value was determined as 0.05 OD450 nm, the “OD450 nm at 0.001 nM antibody” value was 0.06 OD450 nm, the “OD450 nm at 0.01 nM antibody” value was determined as 0.14 OD450 nm and the “OD450 nm at 0.1 nM antibody” value was determined as 0.91 OD450 nm. Besides, in the experiment with murine HER2-His protein [2], the “OD450 nm at 1 nM antibody” value turned out to be 2.47 OD450 nm, the “OD450 nm at 10 nM antibody” value was found to be 2.78 OD450 nm and the “OD450 nm at 100 nM antibody” value is 3.13 OD450 nm. For the same molecule, in experiment [3], the EC50 came out at 3.79 nM and the “Max MFI” value was found to be 18400 MFI. In the experiment with monkey HER2-His protein [5], this molecule showed a Kd of 91.1 nM, a koff of 0.0173 s⁻¹ and a kon of 190000 M⁻¹ s⁻¹. Further, in the experiment with murine HER2-His protein [6], the Kd came to 685 nM, the koff worked out at 0.0569 s⁻¹ and the kon was found to be 83000 M⁻¹ s⁻¹.

B4: NB147-36 VHH-hFc (Fc fusion)
chain: QLQLVESGGGLVQPGGSLRLSCAASGFTLDYHAIGWFRQAPGKEREGVSCISSSGGRINYADSVKGRFTISRDMTKNTVYLELNSLKPEDTAIYYCAAEIFDSSWYCPLSRNNMNYWGKGTLVAVSS[human IgG1 Fc with changes not written out]
notes: the junction is not described
On to B4, for which, in the experiment with monkey HER2-His protein [1], the “OD450 nm at 0.0001 nM antibody” value worked out at 0.05 OD450 nm, the “OD450 nm at 0.001 nM antibody” value is 0.06 OD450 nm, the “OD450 nm at 0.01 nM antibody” value was 0.19 OD450 nm and the “OD450 nm at 0.1 nM antibody” value came out at 1.16 OD450 nm. Besides, in the experiment with monkey HER2-His protein [1], the “OD450 nm at 1 nM antibody” value was 2.66 OD450 nm, the “OD450 nm at 10 nM antibody” value came out at 2.91 OD450 nm and the “OD450 nm at 100 nM antibody” value came to 2.93 OD450 nm. For the same molecule, in the experiment with murine HER2-His protein [2], the “OD450 nm at 0.0001 nM antibody” value is 0.05 OD450 nm, the “OD450 nm at 0.001 nM antibody” value amounted to 0.07 OD450 nm, the “OD450 nm at 0.01 nM antibody” value came to 0.19 OD450 nm and the “OD450 nm at 0.1 nM antibody” value came out at 1.17 OD450 nm. For the same molecule, in the experiment with murine HER2-His protein [2], the “OD450 nm at 1 nM antibody” value is 2.72 OD450 nm, the “OD450 nm at 10 nM antibody” value turned out to be 2.87 OD450 nm and the “OD450 nm at 100 nM antibody” value came out at 2.89 OD450 nm. Also, in experiment [3], the EC50 is 3.48 nM and the “Max MFI” value turned out to be 16100 MFI. Moreover, in experiment [4], the Kd turned out to be 56.1 nM, the koff is 0.00639 s⁻¹ and the on-rate constant (kon) turned out to be 114000 M⁻¹ s⁻¹. In the experiment with monkey HER2-His protein [5], this molecule yielded a dissociation constant (Kd) of 44.2 nM, a koff of 0.0145 s⁻¹ and a kon of 327000 M⁻¹ s⁻¹. In the experiment with murine HER2-His protein [6], this molecule showed a Kd of 135 nM, a koff of 0.0125 s⁻¹ and a kon of 92600 M⁻¹ s⁻¹.

Values taken from patent US20240076403A1 (SIMCERE ZAIMING PHARMACEUTICAL, published 2024).
